The text below walks through data of ChEMBL document CHEMBL4888484, “Replenishing the malaria drug discovery pipeline: Screening and hit evaluation of the MMV Hit Generation Library 1 (HGL1) against asexual blood stage Plasmodium falciparum ,using a nano luciferase reporter read-out” (2022).

The whole screen tested about 150,000 compounds, of which about 540 (0.36%) showed an effect of 50% or more. This is one part of the list.

The assay has as its system Plasmodium falciparum. As to the kind of experiment: Primary screen in NF54 nanoGlo assay, in single point, at 2uM, 72h; a lower Z score goes with more inhibition. It is filed as functional, Erythrocyte. To be noted: timepoint 72 hour.
On to `Cc1ccc(CN(C)C(=O)c2sc(-c3ccco3)nc2-c2ccccc2)o1`, for which the % Inhibition (in general, the relative decrease from the control value, in per cent) is listed as 1% and the Z score was -0.09.
Consider `O=c1c(-c2nc3ccccc3[nH]2)c(Cl)c2cc(Cl)ccc2n1Cc1ccccc1`, for which the “% Inhibition” value is reported as -46% and the Z score is given as 5.43.
Take `COc1cccc(-c2nnc(NC(=O)C(c3ccccc3)c3ccccc3)o2)c1`: the “% Inhibition” value is given as -8% and the Z score is on record as 1.42.
On the same counts, the results for `O=S1(=O)CC[C@H](c2nc(C3(c4ccc(F)cc4)CCC3)no2)C1` are 2% and -0.35.
In the case of `CC(C)[C@H](CNc1cccc(C(=O)N(C)C)n1)N(C)C`, the “% Inhibition” value was -11% and the Z score came to 2.14.
`CCn1cc(S(=O)(=O)N2CCC3(CC2)C[C@@H]3c2noc(C)n2)cn1`: the “% Inhibition” value is recorded as -13% and the Z score worked out at 1.82.
Consider `Cn1nccc1CCNC(=O)N(Cc1c(F)cccc1F)C1CC1`, for which the “% Inhibition” value is listed as -12% and the Z score is reported as 1.22.
On the same counts, the results for `CN(c1ccccc1NC(=O)NCc1ncnn1C)C1CCCC1` are 33% and -3.78.
The like results for `Cc1ccc(Oc2nc(N3CCC(C)CC3)nc3c2CN(C(=O)c2c(F)cccc2F)CC3)cc1` were, in that order, -8% and 1.03.
Consider `CC[C@@H]1Oc2ccc(NC(=O)OCc3ccccc3)cc2CN(CCc2ccc(F)cc2)C1=O`, for which the “% Inhibition” value is on record as -9% and the Z score is given as 0.82.
On to `Cc1ccc(NC(=O)N2CCCN(c3ccc(NC(=O)c4cccs4)cc3C(=O)NCc3ccc(F)cc3)CC2)cc1`, for which the “% Inhibition” value came out at 48% and the Z score is -9.54.
On the same counts, the results for `O=C(Cc1cc(-c2ccccc2)on1)Nc1nccs1` are -21% and 2.47.
As to `CCN(CC)S(=O)(=O)NCc1csc(-c2ccn(C)n2)n1`, the “% Inhibition” value was -14% and the Z score came out at 1.56.
The like results for `COC(=O)C[C@H](NC(=O)c1nn(-c2ccccc2)c(C)cc1=O)c1ccc(C)cc1` were, in that order, -12% and 1.58.
On the same counts, the results for `CCC(CC)C(=O)N[C@H]1CCN2C(=O)c3cc(-c4ccc(OC)cc4OC)ccc3NC(=O)[C@@H]2C1` are 9% and -1.09.
Turning to `COc1ncc(NC(=O)Nc2ccc3c(c2)OCO3)c(N2CCCC2)n1`, the “% Inhibition” value is on record as 0% and the Z score is -0.05.
The like results for `COCCN(c1ccncc1)S(=O)(=O)c1cccc(C)c1Cl` were, in that order, -8% and 0.7.
Regarding `CO[C@](C)(C(=O)NCc1noc(C)n1)C1CC1`, the “% Inhibition” value came to 20% and the Z score is given as -2.48.
On the same counts, the results for `O=C(NCc1ccc(F)cc1)C1CCN(S(=O)(=O)c2cc(C(=O)N3CCCCCC3)cs2)CC1` are -9% and 1.5.
On the same counts, the results for `CC(CCC1CC1(Cl)Cl)NCCn1ccnc1` (stereo unspecified) are 3% and -0.54.
The like results for `Cc1cc(CN(C)C(=O)c2ccc3c(c2)OCO3)no1` were, in that order, -6% and 0.59.
In the case of `Clc1cnccc1CN1CCc2[nH]cnc2[C@@H]1CCc1ccccc1`, the “% Inhibition” value is recorded as -4% and the Z score came to 0.36.
On the same counts, the results for `COc1ccc(CN2C(=O)CC[C@@]2(C)C(=O)NCc2ccccc2)cc1` are -2% and 0.27.
On the same counts, the results for `CCN(CC)C(=O)Cn1ccc2ncccc2c1=O` are -1% and 0.21.
The like results for `O=C(CCc1ccc(F)cc1)NCc1cccnc1` were, in that order, 1% and -0.12.
Consider `Cc1ccccc1[C@H]1CCN(CCNC(=O)Nc2cccc(CC(N)=O)c2)C1`, for which the “% Inhibition” value stood at 0% and the Z score is on record as 0.01.
On the same counts, the results for `COc1ccc(C(=O)Nc2ccc3nccnc3c2)cc1OC` are -25% and 2.95.
The like results for `CC(=O)N[C@H](c1nc(C2(c3ccccc3)CC2)nn1CCO)C(C)C` were, in that order, -5% and 0.67.
The like results for `COc1ncccc1C(=O)Nc1ccccc1Nc1ccncc1` were, in that order, -8% and 1.57.
Regarding `CCN(CC)c1nc(Nc2ccc(Cl)c(Cl)c2)nc(Nc2cc(C)ccc2C)n1`, the “% Inhibition” value was 41% and the Z score is reported as -5.24.
On the same counts, the results for `CN(CC#CCNC(=O)c1ccc(Cl)cc1)Cc1ccccc1` are -4% and 0.6.
The like results for `C=C(C)COCCNC(=O)N1CCC(C)C1CO` (stereo unspecified) were, in that order, -10% and 1.5.
The like results for `Cc1nc(C(=O)N2CCC(F)(F)C2)c[nH]1` were, in that order, -2% and 0.21.
For `CO[C@H]1CCN(C(=O)c2csc3ccccc23)CC1(C)C`, the “% Inhibition” value was -4% and the Z score was found to be 0.43.
Regarding `O=C([C@H]1CCN(C2CCCCC2)C1)N1CCc2sccc2C1`, the “% Inhibition” value came out at 1% and the Z score was -0.23.
The like results for `COc1ccc2cc(C(=O)NCc3ccnc(Oc4ccccc4)c3)[nH]c2c1` were, in that order, -7% and 1.13.
The like results for `CCCS(=O)(=O)Nc1ccc(S(=O)(=O)N(C)[C@@]2(C#N)CCOC2)cc1F` were, in that order, -6% and 0.71.
Turning to `COc1ccc(OC)c(S(=O)(=O)N(CCC(=O)N2CCNCC2)C[C@H]2CCCO2)c1`, the “% Inhibition” value was -3% and the Z score is reported as 0.56.
In the case of `COC(=O)c1cc(-c2ccc(C(=O)N3CCC[C@@]4(CCN(C)C4)C3)cc2)c[nH]1`, the “% Inhibition” value was -13% and the Z score was 2.5.
`Cc1ccnc(N2CCC(O)(Cn3ccnc3)CC2)n1`: the “% Inhibition” value is reported as -12% and the Z score worked out at 1.12.
On the same counts, the results for `O=C(N[C@@H]1CN(C2CCCCCC2)CC[C@@H]1CO)c1cccnc1` are -10% and 1.32.
On the same counts, the results for `COc1cc(CNc2cccc(-c3nc4ccccc4s3)c2)ccc1OCc1c(Cl)cccc1Cl` are -39% and 4.57.
The like results for `O=C(c1cc(-c2ccc(O)cc2)n[nH]1)N1CCC[C@@](O)(CO)C1` were, in that order, -17% and 1.55.
Consider `Cc1nc(-c2cc(S(=O)(=O)N3CCCCC3)c(C)n2C)sc1C(=O)N1CCCCCC1`, for which the “% Inhibition” value turned out to be 4% and the Z score is -0.41.
For `O=C(COc1ccc(F)cc1)N1CCc2nc(OCC3CC3)ccc2C1`, the “% Inhibition” value was 36% and the Z score is listed as -5.15.
For the compound `O=C(c1ccc2ncccc2c1)N1CCC(Cc2nnc(C3CC3)[nH]2)CC1`, the “% Inhibition” value was 0% and the Z score is given as -0.06.
On the same counts, the results for `CN(Cc1ccccc1)C(=O)CCC1CCN(C(=O)[C@@H]2CNCC(=O)N2)CC1` are -3% and 0.52.
On the same counts, the results for `CC1CN(Cc2ccccc2)CC(C)C1NC(=O)Nc1nccs1` (stereo unspecified) are 1% and -0.11.
On the same counts, the results for `CC(C)n1ccc(CN2CCN(S(=O)(=O)c3ccc(F)cc3)CC2)n1` are -4% and 0.5.
`Fc1ccc2c(c1F)CN(c1ncnc3[nH]ccc13)CC2`: the “% Inhibition” value was -5% and the Z score stood at 0.77.
For `O[C@H](c1ncc[nH]1)C1CCN(c2ncncc2Br)CC1`, the “% Inhibition” value is given as -4% and the Z score was 0.61.
On the same counts, the results for `Cc1c(C)c(C(=O)Nc2ccc(C(C)C)cc2)n(Cc2ccccc2F)c1C` are -9% and 1.18.
On the same counts, the results for `COc1ccc(-c2cnc3ncnn3c2N2CCN(C(=O)c3ccccc3C(F)(F)F)CC2)cc1` are 0% and -0.06.
